# Measurements reported in PubChem BioAssay AID485281 (National Center for Advancing Translational Sciences (NCATS), 2010).
# Several values for one entry are separate records, joined by “and”; a condition that tells them apart may be missing. Identical values can stand only once. Among all 350,000 compounds or so, about 260 (0.074%) were called active. Inconclusive means that the source gave no clear call. Such entries were picked first, then a sample of the others. Calls come from the whole dose curve; as a rule, active = well fitted inhibition curve with a large enough effect; inconclusive = small, poorly fitted or top-dose-only effect; inactive = no such curve, though single readings can be large or run the other way. A potency beside an inconclusive call is a rough fit, not a confirmed value.
# Biological target: Ferritin light chain (Equus caballus) (UniProt P02791)
# UniProt P02791, sequence (P02791 whole entry, looked up): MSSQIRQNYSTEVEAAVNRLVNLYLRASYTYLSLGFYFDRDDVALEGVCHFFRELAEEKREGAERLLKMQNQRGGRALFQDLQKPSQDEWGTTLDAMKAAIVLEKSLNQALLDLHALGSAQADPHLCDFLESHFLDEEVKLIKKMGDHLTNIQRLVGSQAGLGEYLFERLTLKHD
# Experiment: qHTS Assay for Identification of Novel General Anesthetics; note: nearly all actives have a fitted effect of over 20% in size
# Details: apoferritin/1-aminoanthracene competitive binding, fluorescence; activity change, negative = displacement: at 77.5 µM (top of the series)
# In short: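 Steps: apoferritin (10 uM) was premixed with half-saturated 1-AMA in PBS, compounds were pin-transferred, plates stood 10 min at room temperature, fluorescence was read at 380/535 nm, and curves were fitted with a Hill equation.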
# % is set by controls: 0 for no effect and ±100 for the full control effect; potency is the fitted concentration of half-maximal effect; tags give direction and shape of the fitted curve.
Structure (SMILES),Potency,"activity change, negative = displacement"
CCc1ccc(NS(=O)(=O)c2c(C)nc3sc(CC)nn3c2=O)cc1,"inconclusive: 11.2 µM [inhibitor, partial curve]",–
CC(C)Cc1cc(C(=O)Nc2sc3c(c2C#N)CCC3)no1,"inconclusive: 39.8 µM [inhibitor, partial curve]",–
CC1CC(C)CN(S(=O)(=O)c2ccc(C(=O)NCc3ccc4c(c3)OCO4)cc2)C1 (stereo not drawn),"inconclusive: 15.8 µM [inhibitor, partial curve]",–
O=C(COC(=O)CC1CC2CCC1C2)Nc1c(F)cccc1F (stereo not drawn),"inconclusive: 20 µM [inhibitor, partial curve]",–
CCOC(=O)Cn1c(=O)n(C2CCCCC2)c2nc(-c3ccc(C(C)C)cc3)nc(C(N)=O)c21,–,inactive: -6.42%
COc1cc(O)ccc1C(=O)CCc1ccc(O)cc1,"inconclusive: 35.5 µM [inhibitor, single point]",–
CCCn1nnnc1SCC(=O)N1C(C)CCCC1C (stereo not drawn),"inconclusive: 39.8 µM [inhibitor, single point]",–
O=C(CSc1ccc(-c2ccccn2)nn1)Nc1ccc(F)cc1F,inactive,–
Cc1ccc2c(C)c(C(=O)Nc3ccc(S(=O)(=O)Nc4onc(C)c4C)cc3)oc2c1,"inconclusive: 25.1 µM [inhibitor, single point]",–
COc1ccc(C2CC(=O)c3c(C)nc(N4CCN(Cc5ccccc5)CC4)nc3C2)cc1OC (stereo not drawn),"inconclusive: 14.1 µM [inhibitor, partial curve]",–
O=S(=O)(NCCc1ccccc1)c1cccc2nsnc12,"inconclusive: 28.2 µM [inhibitor, partial curve]",–
Nc1[nH][nH]c(=O)c1N=Nc1cccc(Cl)c1,"inconclusive: 35.5 µM [inhibitor, partial curve]",–
O=C(Oc1ccc([N+](=O)[O-])cc1)c1cc(-c2ccccc2)nc2ccccc12,"inconclusive: 31.6 µM [inhibitor, partial curve]",–
COCCn1cc(C(=O)NCCCOC(C)C)c2c3ccccc3n(C)c2c1=O,inactive,–
O=C(O)CCc1nn2cnc3sc4c(c3c2nc1=O)CCCC4,"inconclusive: 35.5 µM [inhibitor, partial curve]",–
COC(=O)CCCC1=CC2=CC(=O)C(C)(OC(=O)c3cccs3)C(=O)C2=CN1C1CCCCC1 (stereo not drawn),–,inactive: 1.01%
Cc1ccc(/C(=N/Nc2nc3ccccc3s2)C2=C(O)c3ccccc3C2=O)cc1,–,inactive: -19.8%
Cc1nc(Nc2ccccc2F)c2oc3ccccc3c2n1,–,inactive: -8.06%
CC(C)OC(=O)c1c(-c2ccccc2)c(-c2ccccc2)nn(C)c1=O,"inconclusive: 50.1 µM [inhibitor, partial curve, poor fit]",–
Cc1cccc(OCCCc2c(C)n[nH]c2C)c1,"inconclusive: 28.2 µM [inhibitor, partial curve]",–
Cc1cc(NC(=O)CCC(=O)N(c2ccccc2)C(C(=O)NC2CCCC2)c2cccs2)no1 (stereo not drawn),–,inactive: -22.5%
O=C(COc1ccccc1[N+](=O)[O-])N/N=C/C=C/c1ccco1,"inconclusive: 15.8 µM [inhibitor, partial curve]",–
Cn1c(=O)[nH]c(=O)c2c1nc(SCC(=O)Nc1ccccc1)n2Cc1ccccc1,–,inactive: -22.8%

Structure (SMILES),Potency,"activity change, negative = displacement"
Cn1cccc1C(=O)C(=O)Nc1ccc(Cl)cc1,"inconclusive: 14.1 µM [inhibitor, partial curve]",–
CCCCNS(=O)(=O)c1ccc(C)c(-c2nnc3c4ccccc4c(C)nn23)c1,"inconclusive: 35.5 µM [inhibitor, partial curve]",–
NC(=O)CC(NC(=O)c1ccccc1)c1ccc(NCc2ccc(F)c(F)c2)c([N+](=O)[O-])c1 (stereo not drawn),"inconclusive: 15.8 µM [inhibitor, partial curve]",–
CCOC(=O)CSc1nc2sc3c(c2c(=O)n1-c1ccc(OCC)cc1)CCN(C)C3,–,inactive: -9.88%
COc1ccc2cc(C(c3nnnn3Cc3ccccc3)N3CCCCCC3)c(=O)[nH]c2c1 (stereo not drawn),"inconclusive: 31.6 µM [inhibitor, partial curve]",–
O=C(Cn1cc(C(F)(F)F)ccc1=O)N/N=C/c1ccccc1,"inconclusive: 35.5 µM [inhibitor, partial curve]",–
COc1ccc2occ(C(=O)c3ccccc3)c2c1,"inconclusive: 25.1 µM [inhibitor, partial curve]",–
COCCNC(=O)C(c1ccccc1)N(Cc1cccs1)C(=O)Cn1nnc2ccccc21 (stereo not drawn),–,inactive: -16.8%
Cc1cccc(OCCCCCn2ccnc2)c1,"inconclusive: 31.6 µM [inhibitor, partial curve]",–
Cc1ccc(Cn2ccnc2SCC(=O)Nc2nc3ccccc3s2)cc1,"inconclusive: 6.31 µM [inhibitor, single point]",–
CCC(=O)Nc1ccc(NCc2cccs2)cc1,"inconclusive: 31.6 µM [inhibitor, partial curve]",–
O=c1ccc(-c2ccccc2)nn1Cc1ccc(F)cc1Cl,"inactive and inconclusive: 28.2 µM [inhibitor, partial curve]",–
C=CCC1Cc2c(cccc2[N+](=O)[O-])C(CC=C)N1 (stereo not drawn),"inconclusive: 12.6 µM [inhibitor, partial curve]",–
COc1ccc(Nc2oc(COc3ccc(C)cc3)nc2C#N)cc1,"inconclusive: 25.1 µM [inhibitor, partial curve]",–
COc1ccc(C(=O)ON=C2CCN(c3ccc([N+](=O)[O-])cc3)CC2)cc1,"inconclusive: 28.2 µM [inhibitor, single point]",–
CN1/C(=C\C=Nc2ccc3ccccc3c2)C(C)(C)c2ccccc21,"inconclusive: 12.6 µM [inhibitor, partial curve]",–
COc1ccccc1CNC(=O)c1cc(S(=O)(=O)N2CCCCC2)c[nH]1,"inconclusive: 25.1 µM [inhibitor, partial curve]",–
C/C(=N\Nc1c(F)c(F)c(Br)c(F)c1F)c1ccncc1,"inconclusive: 17.8 µM [inhibitor, partial curve]",–
O=C(NNC(=O)c1cccnc1SCc1cccc([N+](=O)[O-])c1)c1ccc(F)cc1,"inconclusive: 50.1 µM [inhibitor, single point]",–
CCOC(=O)N1CCC(NC(=O)C2CCN(C(=O)c3cc4oc(C)cc4n3Cc3c(F)cccc3Cl)CC2)CC1,"inconclusive: 44.7 µM [inhibitor, single point]",–
COC(=O)CCCNC(=O)c1ccc2[nH]c(C)c(C)c2c1,–,inactive: -8.63%
CCCCCCC(=O)Nc1nc(C)c(-c2csc(Nc3cccc(OC)c3)n2)s1,"inconclusive: 56.2 µM [inhibitor, single point]",–
CCOc1ccccc1COC(=O)c1cccc(-n2cnnn2)c1,"inconclusive: 28.2 µM [inhibitor, partial curve]",–

Structure (SMILES),Potency,"activity change, negative = displacement"
C=C(C)C1CC=C(C)C(O)C1 (stereo not drawn),"inconclusive: 25.1 µM [inhibitor, partial curve]",–
CCC1CCCCN1C(=O)COc1c(Br)cc(Br)c2cccnc12 (stereo not drawn),"inconclusive: 31.6 µM [inhibitor, partial curve]",–
CCOC(=O)c1cc2c3ccccc3n(CC)c2nc1N,–,inactive: 63%
O=C(Nc1nc2ccccc2[nH]1)c1ccc(Cl)c(S(=O)(=O)N2CCCC2)c1,"inconclusive: 12.6 µM [inhibitor, partial curve, poor fit]",–
CC(=O)Nc1ccc(/C(C)=N/NC(=O)c2ccc(F)cc2)cc1,–,inactive: -2.63%
C=CCNC(=O)c1c(N)n(-c2cccc(S(N)(=O)=O)c2)c2nc3ccccc3nc12,–,inactive: 508%
Nn1c(SCC(=O)Nc2ccc(F)cc2F)nnc1C1CCCCC1,"inconclusive: 12.6 µM [inhibitor, partial curve]",–
CCN(CC)C(=S)SSC(=S)N(CC)CC,"inconclusive: 25.1 µM [inhibitor, partial curve]",–
Cc1cccc(N2CCN(C(=O)c3ccc4c(c3)NC(=O)C(CSCc3cccc(F)c3)N4)CC2)c1C (stereo not drawn),"inconclusive: 35.5 µM [inhibitor, single point]",–
O=C(CC1C(=O)NCCN1Cc1cccc(F)c1)NC1CCCCC1 (stereo not drawn),"inconclusive: 31.6 µM [inhibitor, partial curve]",–
Cc1cccc(NCc2ccc(N(C)C)cc2)n1,"inconclusive: 20 µM [inhibitor, partial curve]",–
CCCc1cc(=O)[nH]c(SCc2ccc(Cl)cc2)n1,"inconclusive: 3.98 µM [inhibitor, full curve]",–
O=C(CCCN1C(=O)/C(=C/c2cccs2)SC1=S)Nc1cccc(O)c1,"inconclusive: 17.8 µM [inhibitor, single point]",–
S=C(NCCCc1ccccc1)NCc1ccccc1,"inconclusive: 25.1 µM [inhibitor, partial curve, poor fit]",–
O=C(Cc1cccs1)N/N=C/C=C\c1ccco1,–,inactive: -8.86%
Cc1ccc(CSc2nnc(NC(=O)C3COc4ccccc4O3)s2)cc1 (stereo not drawn),"inconclusive: 3.98 µM [inhibitor, full curve]",–
CN(C)c1ccc(/C=N/NC(=O)CNC(=O)c2ccco2)cc1,"inconclusive: 15.8 µM [inhibitor, partial curve]",–
Cc1ccc(S(=O)(=O)/N=C(\c2ccccc2)N(C)S(=O)(=O)c2ccc(C)cc2)cc1,"inconclusive: 20 µM [inhibitor, partial curve]",–
CCCOc1ccccc1C(=O)N1CCC(c2nc3ccccc3s2)CC1,–,inactive: 4.58%
CCOc1ccc(C(=O)Nc2ccc3c(c2)OCCO3)cc1[N+](=O)[O-],–,inactive: -20.4%
CCOC(=O)CN1C(=O)C(Sc2n[nH]c(-c3ccc(C)cc3)n2)CCc2ccccc21 (stereo not drawn),"inconclusive: 25.1 µM [inhibitor, partial curve]",–
CC(C)CCNC(=O)C(C)N(C(=O)Cn1nnc(-c2ccc(F)cc2)n1)C1CCCC1 (stereo not drawn),"inconclusive: 35.5 µM [inhibitor, single point]",–
